Measurements taken from PubChem BioAssay (NCATS).
The shares of active, inactive and inconclusive entries below differ from those in the screen. For some of these results: Potencies of inconclusive entries are doubtful fits and often do not repeat. Calls of active or inactive are those of the source. Unless noted, the call rests on the fitted dose curve; in most records, active means well fitted curve in the direction sought with a large enough effect; inconclusive means small, poorly fitted or top-dose-only effect, or another doubt; inactive means no such curve, though single readings can be large; an effect the other way counts as inactive or inconclusive.

Assays:
[1] = P-glycoprotein substrates identified in KB-8-5-11 adenocarcinoma cell line, qHTS therapeutic library screen (AID 1346987); further: nearly all actives have a fitted effect of over 65% in size; on activity change, negative = cytotoxicity: on the % scale 0 is the no-effect control and ±100 the full control effect
Procedure, shortened: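 KB-8-5-11, a colchicine-selected P-gp-overexpressing KB-3-1 subline, was grown without colchicine for the assay. Cells were seeded at 500 cells/well, dosed in concentration-response and incubated 72 h at 37 degree C, 5% CO2. Viability was read by CellTiter-Glo luminescence.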

[2] = qHTS of pediatric cancer cell lines to identify multiple opportunities for drug repurposing: Primary screen for SK-N-MC cells (AID 1347093); details: SK-N-MC viability, CellTiter-Glo luminescence, 48 h; activity change, negative = cytotoxic: at 46 µM (top of the series);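 on activity change, negative = cytotoxic: plate controls were DMSO neutral control for no effect and bortezomib for full effect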
Procedure, shortened: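 Metabolically active cells were quantified by ATP-dependent luminescence (CellTiter-Glo, 15 min at room temperature) following 48 h treatment. Cells had been plated at 500-1,000 per well and settled for 5 h beforehand.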

[3] = Primary qHTS for small molecule stabilizers of the endoplasmic reticulum resident proteome: Secreted ER Calcium Modulated Protein (SERCaMP) assay (AID 1508630); details: SH-SY5Y GLuc-SERCaMP (Gaussia luciferase released on ER calcium loss) secretion, thapsigargin, luminescence; activity change, negative = inhibition: at 38.4 µM (top of the series) unless noted; on activity change, negative = inhibition: on the % scale 0 is the no-effect control and ±100 the full control effect
Procedure, shortened: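 GLuc-SERCaMP-expressing SH-SY5Y cells, pretreated 16 h with compound, are challenged with thapsigargin to empty ER calcium stores; after 4 h, coelenterazine is added directly to the medium and luminescence is imaged.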

[4] = biological target: Cytochrome P450 2D6 (Homo sapiens) (UniProt P10635); experiment: Cytochrome P450 family 2 subfamily D member 6 (CYP2D6) small molecule antagonists: luciferase biochemical (cell-free) qHTS assay (AID 1645840; active means well fitted curve in the direction sought with a large enough effect in the repeat runs; inconclusive means weak or mixed curves; inactive means no such curve, though single readings can be large; an effect the other way counts as inactive or inconclusive; further: nearly all actives have a fitted effect of over 55% in size; on activity change, negative = inhibition: on the % scale 0 is the no-effect control and ±100 the full control effect)
UniProt P10635, sequence (P10635 whole entry, looked up): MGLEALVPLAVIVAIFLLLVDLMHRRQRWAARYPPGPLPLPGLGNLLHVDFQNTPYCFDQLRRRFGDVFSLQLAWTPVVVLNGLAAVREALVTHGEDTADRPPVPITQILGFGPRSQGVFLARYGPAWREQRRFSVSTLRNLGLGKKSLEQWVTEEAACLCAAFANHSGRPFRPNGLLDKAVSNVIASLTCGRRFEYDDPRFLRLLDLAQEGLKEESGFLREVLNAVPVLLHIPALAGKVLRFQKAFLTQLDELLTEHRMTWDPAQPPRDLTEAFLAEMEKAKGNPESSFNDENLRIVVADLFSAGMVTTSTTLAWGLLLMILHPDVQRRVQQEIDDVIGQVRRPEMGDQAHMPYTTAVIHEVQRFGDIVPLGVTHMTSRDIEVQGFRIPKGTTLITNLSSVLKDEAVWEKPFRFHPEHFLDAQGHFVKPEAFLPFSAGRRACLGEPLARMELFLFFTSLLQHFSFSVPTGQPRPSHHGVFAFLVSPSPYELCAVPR
Procedure, shortened: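 P450-Glo luminescent screen: recombinant CYP2D6 enzyme–proluciferin substrate mix preincubated with compound 10 min at room temperature, then NADPH regeneration added for 1 h at room temperature. Detection reagent added for 20 min; luciferin light read as relative luminescence units.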

[5] = biological target: Cytochrome P450 2C9 (Homo sapiens) (UniProt P11712); experiment: Cytochrome P450 family 2 subfamily C member 9 (CYP2C9) small molecule antagonists: luciferase biochemical (cell-free) qHTS assay (AID 1645842; active means well fitted curve in the direction sought with a large enough effect in the repeat runs; inconclusive means weak or mixed curves; inactive means no such curve, though single readings can be large; an effect the other way counts as inactive or inconclusive; further: nearly all actives have a fitted effect of over 55% in size; on activity change, negative = inhibition: on the % scale 0 is the no-effect control and ±100 the full control effect)
UniProt P11712, sequence (P11712 whole entry, looked up): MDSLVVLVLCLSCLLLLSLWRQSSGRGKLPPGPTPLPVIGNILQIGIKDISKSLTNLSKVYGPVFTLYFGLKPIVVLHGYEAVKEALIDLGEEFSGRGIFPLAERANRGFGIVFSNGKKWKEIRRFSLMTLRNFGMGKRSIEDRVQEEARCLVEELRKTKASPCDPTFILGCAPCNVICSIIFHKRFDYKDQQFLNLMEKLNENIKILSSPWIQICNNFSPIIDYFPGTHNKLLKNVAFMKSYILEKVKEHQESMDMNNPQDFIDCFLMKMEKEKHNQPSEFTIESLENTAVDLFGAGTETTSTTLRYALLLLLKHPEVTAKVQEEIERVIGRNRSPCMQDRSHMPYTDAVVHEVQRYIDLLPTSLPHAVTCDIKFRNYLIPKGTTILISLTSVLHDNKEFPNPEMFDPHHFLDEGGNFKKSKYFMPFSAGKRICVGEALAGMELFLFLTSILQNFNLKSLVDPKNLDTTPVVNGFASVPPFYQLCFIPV
Procedure, shortened: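 Luminescence, after 20 min with luciferin detection reagent, reflected CYP2C9 turnover during a 1 h NADPH-driven reaction at 37C. Enzyme-substrate mix contained 0.4% bovine serum albumin and was preincubated with compound 10 min at room temperature.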

[6] = Primary qHTS for inhibitors of nuclear receptor binding SET domain protein 2 (NSD2) in an isogenic RCH-ACV NSD2 p.E1099K mutant (9B) (AID 1645876); further: nearly all actives have a fitted effect of over 70% in size
[7] = Primary qHTS for inhibitors of nuclear receptor binding SET domain protein 2 (NSD2) in an RCH-ACV wild type WT cells (2C) (AID 1645877); details: activity change, negative = cell killing: at 44.9 µM (top of the series) unless noted; further: nearly all actives have a fitted effect of over 70% in size
[8] = test system: CRL-7250; experiment: Cytotoxic Profiling of Annotated Libraries Using Quantitative High-Throughput Screening (AID 1296008); details: Five cell lines viability, CellTiter-Glo ATP luminescence, 48-72 h; max response: active compounds read low; further: nearly all actives have a fitted effect of over 60% in size
Procedure, shortened: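 Cells exposed to compounds for 48 or 72 hr at 37 degrees Celsius. Viability read as ATP-coupled luminescence with CellTiter-Glo after 10 min at room temperature.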

[9] = test system: CAOV3; experiment: Primary qHTS to identify gynecologic anti-cancer compounds using libraries of approved drugs and bioactive compounds (AID 1345084); details: Gynecologic cancer cell panel viability, ATPlite luminescence, 48 h; activity change, negative = cytotoxicity: at 57.5 µM (top of the series); further: nearly all actives have a fitted effect of over 55% in size
Procedure, shortened: (§1)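 Cells, 1,000 per well, were allowed to settle for 16 h at 37 C before compound addition. Five concentrations were tested for 48 h, and viability was read by ATPlite luminescence after 15 min at room temperature.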

[10] = test system: SKOV3; experiment: as above; details: Gynecologic cancer cell panel viability, ATPlite luminescence, 48 h; series mostly up to 57.5 µM
Procedure, shortened: as §1

[11] = test system: OV90; experiment: as above; details: Gynecologic cancer cell panel viability, ATPlite luminescence, 48 h; series mostly up to 57.5 µM
Procedure, shortened: as §1

[12] = test system: Hek293T; experiment: as above; details: Gynecologic cancer cell panel viability, ATPlite luminescence, 48 h, control line for the selectivity index; activity change, negative = cytotoxicity: at 57.5 µM (top of the series) unless noted
Procedure, shortened: as §1

[13] = test system: C33A; experiment: as above; details: Gynecologic cancer cell panel viability, ATPlite luminescence, 48 h; series mostly up to 57.5 µM
Procedure, shortened: as §1

[14] = test system: PA-1; experiment: as above; details: Gynecologic cancer cell panel viability, ATPlite luminescence, 48 h; series mostly up to 57.5 µM
Procedure, shortened: as §1

[15] = Primary fluorescence-based thiol-reactive (MSTI) qHTS assay for identification of artifact compounds. (AID 1845221);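 further: thiol-reactive compounds lower the probe fluorescence signal; nearly all actives have a fitted effect of over 65% in size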
Procedure, shortened: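 qHTS titration of compound; 4 uM MSTI, PBS pH 7.4, 2% DMSO; 1 h RT, dark; fluorescence 525/598 nm; normalized to Acetyl-MSTI and MSTI; 4-parameter Hill fit.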

[16] = test system: CASKI; experiment: Primary qHTS to identify gynecologic anti-cancer compounds using libraries of approved drugs and bioactive compounds (AID 1345084); details: Gynecologic cancer cell panel viability, ATPlite luminescence, 48 h; series mostly up to 57.5 µM; further: nearly all actives have a fitted effect of over 55% in size
Procedure, shortened: as §1

[17] = test system: Tov-21-G; experiment: as above; details: Gynecologic cancer cell panel viability, ATPlite luminescence, 48 h; activity change, negative = cytotoxicity: at 57.5 µM (top of the series) unless noted
Procedure, shortened: as §1
Potency means the concentration at half of the fitted maximal effect; tags describe the fitted curve by direction and shape.

COc1cc(C(=O)N2CCCCCCC2)cc(OC)c1OC
inactive: Potency [1] | Potency [2] | Potency [3] | Potency [4] | Potency [5] | Potency [6] | Potency [7]
inconclusive: Potency [8] 33.5 µM [inhibitor, single point]

Brc1ccccc1-c1ccccc1
inactive: Potency [1] | Potency [4] | Potency [7] | Potency [10]
inconclusive: Potency [3] 3.16 µM [inhibitor, full curve, poor fit] | Potency [5] 13.5 µM [inhibitor, partial curve] | Potency [8] 65.1 µM [inhibitor, single point] | Potency [9] 8.91 µM [cytotoxic, single point]

OCCOCCN1CCN(C(c2ccccc2)c2ccc(Cl)cc2)CC1 (centres undefined)
inactive: Potency [3] | Potency [10]
inconclusive: Potency [1] 10.3 µM [inhibitor, partial curve, poor fit] | Potency [2] 33.5 µM [cytotoxic, single point] | Potency [6] 29.9 µM [inhibitor, single point] | Potency [7] 23.7 µM [inhibitor, partial curve] | Potency [8] 33.5 µM [inhibitor, single point] | Potency [11] 12.6 µM [cytotoxic, partial curve, poor fit]

O=C1c2c(O)cccc2[C@@H]([C@@H]2O[C@H](CO)[C@@H](O)[C@H](O)[C@H]2O)c2cc(CO)cc(O)c21
inactive: max response [8] -3.91%

CN[C@H]1[C@@H](O)[C@@H]2O[C@@H]3O[C@H](C)CC(=O)[C@]3(O)O[C@@H]2[C@@H](NC)[C@H]1O
inactive: max response [8] 4.26%

CCNC(=O)N1CCN(CCCC(c2ccc(F)cc2)c2ccc(F)cc2)CC1
inactive: Potency [5] | Potency [9]
inconclusive: Potency [2] 33.5 µM [cytotoxic, single point] | Potency [3] 28.2 µM [inhibitor, single point] | Potency [6] 16.8 µM [inhibitor, partial curve] | Potency [7] 29.9 µM [inhibitor, single point] | Potency [8] 33.5 µM [inhibitor, single point] | Potency [12] 35.5 µM [cytotoxic, single point] | Potency [11] 14.1 µM [cytotoxic, partial curve, poor fit] | Potency [10] 28.2 µM [cytotoxic, partial curve, poor fit]
active: Potency [1] 16.4 µM

CC(=O)OCC(=O)[C@@]1(O)CC[C@H]2[C@@H]3CCC4=CC(=O)C=C[C@]4(C)[C@@]3(F)[C@@H](O)C[C@@]21C
active: Potency [7] 0.0211 µM
inconclusive: Potency [6] 0.0841 µM [inhibitor, full curve] | Potency [9] 0.794 µM [cytotoxic, partial curve, poor fit] | Potency [10] 10 µM [rising, partial curve, poor fit]
inactive: max response [8] 2.22% | Potency [13]

CC(=O)Nc1ccc(OC(=O)c2ccccc2OC(C)=O)cc1
active: Potency [4] 15.5 µM
inconclusive: Potency [3] 3.98 µM [inhibitor, partial curve, poor fit] | Potency [8] 2.99 µM [inhibitor, single point]
inactive: Potency [14]

CC(Oc1ccc2[nH]nc(/C=C/c3cnn(CCO)c3)c2c1)c1c(Cl)cncc1Cl (centres undefined)
inconclusive: Potency [15] 15 µM [inhibitor, partial curve] | Potency [13] 14.1 µM [cytotoxic, partial curve, poor fit] | Potency [9] 3.16 µM [cytotoxic, full curve, poor fit] | Potency [16] 14.1 µM [cytotoxic, partial curve, poor fit] | Potency [11] 1.12 µM [cytotoxic, partial curve, poor fit] | Potency [10] 14.1 µM [cytotoxic, partial curve, poor fit]
active: Potency [5] 0.536 µM | Potency [8] 1.46 µM | Potency [12] 10 µM | Potency [14] 6.31 µM

CC(Oc1c(Cl)cccc1Cl)C1=NCCN1 (centres undefined)
inconclusive: Potency [5] 27.5 µM [inhibitor, single point] | Potency [6] 29.9 µM [inhibitor, partial curve, poor fit] | Potency [7] 33.5 µM [inhibitor, single point]
inactive: Potency [2] | max response [8] -2.82% | Potency [14] | Potency [17]
